In the antibiotic and cytotoxicity screens of Wong et al. (2023) one finds cytotoxicity call and growth inhibition call data, which are given here for 26 compounds.

For test [1], the system named is HSkMC (human skeletal muscle cells). Description: cytotoxicity call (relative viability < 0.9). The note with it: 10 µM.
Test [2] concerns HepG2. Put plainly: cytotoxicity call (relative viability < 0.9). The note with it: 10 µM.
For test [3], the system named is S. aureus RN4220. Description: growth inhibition call (relative growth <= 0.2). The note with it: 50 µM.

The structures appear in SMILES notation. The list shows a part of the results.

`COc1ccc(S(=O)(=O)N(C)C[C@@H]2Oc3ncc(-c4ccncc4)cc3C(=O)N([C@H](C)CO)C[C@@H]2C)cc1`: the cytotoxicity call in test [1] and in test [2] was “inactive” in each case. For the same compound, the growth inhibition call in test [3] was “inactive”.
With `O=C(C[C@H]1C[C@@H]2c3cc(NC(=O)NC4CCCC4)ccc3O[C@@H]2[C@@H](CO)O1)NCCN1CCCCC1`, the cytotoxicity call in test [1] and in test [2] was “inactive” each time. In addition, the growth inhibition call in test [3] is “inactive”.
For `C[C@@H]1CN([C@@H](C)CO)C(=O)c2cc(NC(=O)C3CCCCC3)ccc2O[C@@H](C)CCCCO[C@H]1CN(C)Cc1ccccc1`, the cytotoxicity call in test [1] and in test [2] was “inactive” throughout. The growth inhibition call in test [3] is “inactive”.
`C[C@H]1CCCCO[C@H](CN(C)Cc2ccc3c(c2)OCO3)[C@@H](C)CN([C@@H](C)CO)C(=O)c2cc(NC(=O)Cc3ccccc3)ccc2O1`: the cytotoxicity call in test [1] and in test [2] was “inactive” in each case. The growth inhibition call in test [3] was “inactive”.
On to `C[C@@H]1CN([C@H](C)CO)C(=O)Cc2cc(NC(=O)Nc3ccc4c(c3)OCO4)ccc2O[C@H]1CN(C)Cc1ccc(Cl)c(Cl)c1`, for which the cytotoxicity call in test [1] and in test [2] was “inactive” throughout. The growth inhibition call in test [3] is “inactive”.
As to `C[C@@H]1CN([C@H](C)CO)C(=O)c2cc(NC(=O)Cc3ccccc3)ccc2O[C@@H](C)CCCCO[C@H]1CN(C)C(=O)C1CCCCC1`, the cytotoxicity call in test [1] and in test [2] was “inactive” in each case. For the same compound, in test [3], the growth inhibition call is “inactive”.
Consider `Cc1noc(C)c1NC(=O)N1C[C@H](O)COC[C@H]2O[C@H](CC(=O)N[C@H]3CCN(Cc4ccccc4)C3)CC[C@@H]21`, for which the cytotoxicity call in test [1] and in test [2] was “inactive” throughout. For the same compound, in test [3], the growth inhibition call is “inactive”.
`C[C@H](CO)N1C[C@H](C)[C@@H](CN(C)C(=O)CCC(F)(F)F)OCc2ccccc2-c2c(n(C)c3ccccc23)C1=O`: the cytotoxicity call in test [1] and in test [2] was “inactive” throughout. For the same compound, in test [3], the growth inhibition call is “inactive”.
`CCCNC(=O)N1C[C@H](C)[C@@H](OC)CN(C)C(=O)c2ccc(NS(=O)(=O)CC(F)(F)F)cc2OC[C@@H]1C`: the cytotoxicity call in test [1] and in test [2] was “inactive” throughout. The growth inhibition call in test [3] was “inactive”.
Turning to `CC(C)NC(=O)Nc1ccc2c(c1)CC(=O)N([C@@H](C)CO)C[C@@H](C)[C@@H](CN(C)S(=O)(=O)c1cccs1)O2`, the cytotoxicity call in test [1] is “inactive”. For the same compound, the cytotoxicity call in test [2] was “active”. For the same compound, the growth inhibition call in test [3] was “inactive”.
Consider `C=CCOC(=O)[C@H]1[C@@H]2C(=O)O[C@@H](c3ccccc3)[C@@H](c3ccccc3)N2[C@@H](c2ccc(OCCOC(=O)[C@H]3C[C@H]4C(=O)N[C@@H](Cc5ccccc5)C(=O)N4[C@H]3c3cccc(OCCO)c3)cc2)[C@]12C(=O)Nc1ccccc12`, for which the cytotoxicity call in test [1] and in test [2] was “inactive” each time. Also, the growth inhibition call in test [3] was “inactive”.
Turning to `COc1ccc(NC(=O)N(C)C[C@H]2Oc3ccc(NC(=O)Nc4cccc5ccccc45)cc3C(=O)N([C@H](C)CO)C[C@H]2C)cc1`, the cytotoxicity call in test [1] and in test [2] was “inactive” throughout. Moreover, in test [3], the growth inhibition call is “inactive”.
As for `COC(=O)C(CC#Cc1ccc2c(c1)[C@]1(C(=O)N2)[C@H](c2ccccc2OCCO)N2[C@H](c3ccccc3)[C@H](c3ccccc3)OC(=O)[C@H]2[C@@H]1C(=O)Nc1nc2ccccc2s1)C(=O)OC`, the cytotoxicity call in test [1] and in test [2] was “inactive” throughout. In test [3], the growth inhibition call is “inactive”.
On to `C[C@@H]1CN([C@@H](C)CO)C(=O)c2cccc(NS(=O)(=O)c3ccccc3)c2O[C@@H]1CN(C)S(C)(=O)=O`, for which the cytotoxicity call in test [1] and in test [2] was “inactive” each time. In test [3], the growth inhibition call is “inactive”.
With `C[C@H]1CN([C@@H](C)CO)C(=O)Cc2cc(NS(=O)(=O)c3ccc(Cl)cc3)ccc2O[C@H]1CN(C)C`, the cytotoxicity call in test [1] and in test [2] was “inactive” in each case. The growth inhibition call in test [3] is “inactive”.
As to `C[C@@H]1CCCCO[C@H](CN(C)Cc2ccc(Cl)c(Cl)c2)[C@H](C)CN([C@@H](C)CO)C(=O)c2cc(NS(=O)(=O)c3ccccc3)ccc2O1`, the cytotoxicity call in test [1] was “active”. Also, the cytotoxicity call in test [2] is “inactive”. Further, the growth inhibition call in test [3] was “inactive”.
Consider `O=C(C[C@H]1CC[C@H](NS(=O)(=O)c2ccccc2)[C@H](CO)O1)NCc1ccncn1`, for which the cytotoxicity call in test [1] and in test [2] was “inactive” in each case. Further, in test [3], the growth inhibition call was “inactive”.
In the case of `CO[C@@H](CN(C)S(=O)(=O)c1cccc(Cl)c1)[C@@H](C)CN([C@H](C)CO)S(=O)(=O)c1ccc(Cl)cc1`, the cytotoxicity call in test [1] and in test [2] was “inactive” throughout. In addition, in test [3], the growth inhibition call was “inactive”.
As for `COCC(=O)N(C)C[C@@H]1Oc2cc(C#CCC3CCCC3)ccc2S(=O)(=O)N([C@H](C)CO)C[C@@H]1C`, the cytotoxicity call in test [1] and in test [2] was “inactive” throughout. For the same compound, the growth inhibition call in test [3] is “inactive”.
In the case of `COC(=O)C(N)CS.Cl` (stereo not drawn), the cytotoxicity call in test [1] and in test [2] was “inactive” throughout. Moreover, the growth inhibition call in test [3] is “inactive”.
On to `C[C@@H]1CCCCO[C@@H](CN(C)C)[C@@H](C)CN([C@H](C)CO)C(=O)c2cc(NC(=O)CCCCCC(=O)Nc3ccccc3N)ccc2O1`, for which the cytotoxicity call in test [1] and in test [2] was “inactive” each time. Also, the growth inhibition call in test [3] is “inactive”.
`C[C@@H]1CN([C@H](C)CO)S(=O)(=O)c2ccc(C#CCN(C)C)cc2O[C@H]1CN(C)C(=O)CN(C)C`: the cytotoxicity call in test [1] and in test [2] was “inactive” throughout. In test [3], the growth inhibition call was “inactive”.
With `C[C@H]1CN([C@@H](C)CO)C(=O)Cc2cc(NC(=O)Cn3cnnn3)ccc2O[C@H]1CN(C)Cc1ccc(C(=O)O)cc1`, the cytotoxicity call in test [1] and in test [2] was “inactive” throughout. In addition, in test [3], the growth inhibition call was “inactive”.
For the compound `CC(C)(C)[S@](=O)N1Cc2cc(C(=O)NCC(F)(F)F)nc(-c3cccc(-c4cccc(F)c4)c3)c2[C@@H]1CCO`, the cytotoxicity call in test [1] is “inactive”. The cytotoxicity call in test [2] was “active”. Moreover, the growth inhibition call in test [3] is “inactive”.
As for `COc1cccc(NC(=O)N2C[C@H](O)COC[C@H]3O[C@H](CC(=O)NCc4ccccc4F)CC[C@@H]32)c1`, the cytotoxicity call in test [1] and in test [2] was “inactive” each time. The growth inhibition call in test [3] is “inactive”.
On to `O=C(O)C1(c2cccs2)CCCC1`, for which the cytotoxicity call in test [1] and in test [2] was “inactive” each time. Further, the growth inhibition call in test [3] is “inactive”.
